# Test results taken from the supplement of paper PMC4604168 (melanoma cell lines).
# This is one part of the list. Single values are uncertain, as repeats are few or missing.
# Assays:
# Test in all cases: cell count relative to DMSO control; melanoma cells; higher = more viable cells
# Conditions in all cases: library dose: low library concentration; 72 h
# [1] = test system: WM115
# [2] = test system: WM1716
# [3] = test system: WM1745
# [4] = test system: WM3526
# [5] = test system: WM3619
# [6] = test system: WM451Lu
# 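Also: cell number obtained by counting DAPI-stained nuclei in high-throughput microscope images with image analysis software, screen run in 1,536-well plates.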
Structure (SMILES),cell count [1],cell count [2],cell count [3],cell count [4],cell count [5],cell count [6]
"CC(C)C[C@H](NC(=O)[C@H](Cc1ccccc1)NC(=O)c1cnccn1)B(O)O [Bortezomib] + COc1ccc(COc2ccc(Cc3cnc(N)nc3N)cc2OC)cc1 [GW2580] (first compound 0.001 µM, partner dose 1 µM)",105%,40.8%,70.8%,99.7%,43.5%,80.7%
"CC(C)C[C@H](NC(=O)[C@H](Cc1ccccc1)NC(=O)c1cnccn1)B(O)O [Bortezomib] + C[C@@H]1CCN(C(=O)CC#N)C[C@@H]1N(C)c1ncnc2[nH]ccc12 [CP690550] (first compound 0.001 µM, partner dose 1 µM)",114%,28.9%,75.7%,99.7%,24.4%,80.6%
"Cc1cn(-c2cc(NC(=O)c3ccc(C)c(Nc4nccc(-c5cccnc5)n4)c3)cc(C(F)(F)F)c2)cn1 [nilotinib] + COc1ccc(Cl)c(Nc2nc3ccccc3nc2NS(=O)(=O)c2cccc(NC(=O)C(C)(C)N)c2)c1 [XL147] (first compound 0.2 µM, partner dose 0.8 µM)",112%,–,85%,117%,99.7%,66%
"Cc1cn(-c2cc(NC(=O)c3ccc(C)c(Nc4nccc(-c5cccnc5)n4)c3)cc(C(F)(F)F)c2)cn1 [nilotinib] + O=C1NC(=O)/C(=C/c2ccc(-c3ccc(F)cc3O)o2)S1 [AS252424] (first compound 0.2 µM, partner dose 1 µM)",108%,94.6%,98.3%,93.9%,99.1%,134%
"Cc1cn(-c2cc(NC(=O)c3ccc(C)c(Nc4nccc(-c5cccnc5)n4)c3)cc(C(F)(F)F)c2)cn1 [nilotinib] + CC1(C)NC(=O)N(c2ccc([N+](=O)[O-])c(C(F)(F)F)c2)C1=O [nilutamide] (first compound 0.2 µM, partner dose 1 µM)",108%,106%,79.5%,94.7%,133%,95.9%
"CC(C)C[C@H](NC(=O)[C@H](Cc1ccccc1)NC(=O)c1cnccn1)B(O)O [Bortezomib] + Nc1ncn([C@H]2C[C@H](O)[C@@H](CO)O2)c(=O)n1 [decitabine] (first compound 0.001 µM, partner dose 0.1 µM)",88.3%,18.4%,47.7%,91.7%,14.1%,88.7%
"Cc1cn(-c2cc(NC(=O)c3ccc(C)c(Nc4nccc(-c5cccnc5)n4)c3)cc(C(F)(F)F)c2)cn1 [nilotinib] + COc1cc2ncnc(Nc3ccc(Oc4ccccc4)cc3)c2cc1OC [SrcI1] (first compound 0.2 µM, partner dose 2 µM)",99.3%,138%,87.5%,88.7%,94.8%,103%
"Cc1cn(-c2cc(NC(=O)c3ccc(C)c(Nc4nccc(-c5cccnc5)n4)c3)cc(C(F)(F)F)c2)cn1 [nilotinib] + Cc1ccc(NC(=O)c2cccc(N(C)C)c2)cc1NC(=O)c1ccc(O)cc1 [ZM336372] (first compound 0.2 µM, partner dose 2 µM)",112%,106%,91.6%,110%,76.6%,134%
"Cc1cn(-c2cc(NC(=O)c3ccc(C)c(Nc4nccc(-c5cccnc5)n4)c3)cc(C(F)(F)F)c2)cn1 [nilotinib] + O=C(O)C(=O)Nc1sc2c(c1C(=O)O)CCNC2 [TCS401] (first compound 0.2 µM, partner dose 1.66667 µM)",114%,104%,87.1%,93.8%,93.7%,101%
"COc1ccc(C2=N[C@@H](c3ccc(Cl)cc3)[C@@H](c3ccc(Cl)cc3)N2C(=O)N2CCNC(=O)C2)c(OC(C)C)c1 [Nutlin-3] + COc1cc(Nc2ncc(F)c(Nc3ccc4c(n3)NC(=O)C(C)(C)O4)n2)cc(OC)c1OC [Tamatinib] (first compound 0.1 µM, partner dose 0.4 µM)",69.8%,88.8%,76.8%,75.8%,101%,94.2%
"COc1ccc(C2=N[C@@H](c3ccc(Cl)cc3)[C@@H](c3ccc(Cl)cc3)N2C(=O)N2CCNC(=O)C2)c(OC(C)C)c1 [Nutlin-3] + Cc1ccc(NC(=O)c2cccc(N(C)C)c2)cc1NC(=O)c1ccc(O)cc1 [ZM336372] (first compound 0.1 µM, partner dose 2 µM)",91.4%,96.3%,90.5%,76.4%,91.2%,90.5%
